Reference: PubChem BioAssay AID2147 (National Center for Advancing Translational Sciences (NCATS), 2009)
Screen size: about 230,000 compounds; about 3,600 (1.6%) were called active. This list was built around the results that the source calls inconclusive (neither active nor inactive); the mix of calls is not that of the screen. Calls follow the shape of the dose curve; as a rule, active = well fitted inhibition curve with a large enough effect (not every such curve was filed as active); inconclusive = small, poorly fitted or top-dose-only effect, or another doubt; inactive = no such curve, though single readings can be large or run the other way. Potencies of inconclusive entries are doubtful fits and often do not repeat.

Target: Lysine-specific demethylase 4E (Homo sapiens) (UniProt B2RXH2)
Experiment: qHTS Assay for Inhibitors of Human Jumonji Domain Containing 2E (JMJD2E)
Details: JMJD2E catalytic domain, FDH-coupled NADH fluorescence (FDH is formaldehyde dehydrogenase); series mostly up to 57.1 µM
Also: nearly all actives have a fitted effect of over 50% in size.
Potency is read from the fitted curve at half-maximal effect; tags tell the direction and shape of the fitted curve.

Sequence of UniProt B2RXH2 (B2RXH2 whole entry, looked up, the tested form may be a part): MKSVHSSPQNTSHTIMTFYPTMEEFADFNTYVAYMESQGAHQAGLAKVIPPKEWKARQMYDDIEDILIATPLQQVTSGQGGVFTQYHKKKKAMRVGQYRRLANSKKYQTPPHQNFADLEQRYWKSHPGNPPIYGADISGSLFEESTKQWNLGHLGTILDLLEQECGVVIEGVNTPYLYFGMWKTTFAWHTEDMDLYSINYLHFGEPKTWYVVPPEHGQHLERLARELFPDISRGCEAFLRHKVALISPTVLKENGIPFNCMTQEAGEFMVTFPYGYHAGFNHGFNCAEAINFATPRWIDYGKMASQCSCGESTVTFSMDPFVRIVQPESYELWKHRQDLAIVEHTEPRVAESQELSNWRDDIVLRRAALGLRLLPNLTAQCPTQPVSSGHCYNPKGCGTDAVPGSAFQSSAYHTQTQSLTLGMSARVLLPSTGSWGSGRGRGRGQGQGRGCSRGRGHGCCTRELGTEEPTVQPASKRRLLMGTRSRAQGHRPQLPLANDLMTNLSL

Row | SMILES | Potency
1 | O=[N+]([O-])c1ccc(/C=C/c2ccncc2)cc1 | inactive
2 | COCc1cc(C)nc(NCCO)c1C#N | inconclusive: 31.6 µM [inhibitor, partial curve]
3 | Cc1ccc(OCCN(C)C(=O)CC2C(=O)NCCN2CC(C)(C)C)cc1 (stereo not given) | inconclusive: 39.8 µM [inhibitor, single point]
4 | c1ccc(CCN=C2CCCc3c2[nH]c2ccccc32)cc1 | inconclusive: 31.6 µM [inhibitor, partial curve]
5 | Cc1cc(N(CCO)CCO)ccc1N=Nc1cc(F)ccc1F | inactive
6 | CN(C)CCCNc1ncc(C(F)(F)F)cc1Cl | inactive
7 | O=C(CCSc1ccccc1)NCCSCc1ccccc1 | inactive
8 | Cc1cccnc1NC(=O)Nc1cccc2ccccc12 | inconclusive: 25.1 µM [inhibitor, partial curve]
9 | CN(C)C=Nc1ncc2c3ccccc3n(CCN(C)C)c2c1C#N | inconclusive: 25.1 µM [inhibitor, partial curve]
10 | Cc1ccc2nc(Cl)c(/C=N/Nc3nc(C)cc(C)n3)c(=O)n2c1 | inconclusive: 35.5 µM [inhibitor, single point]
11 | NNC(=O)c1ccc(CN2C(=O)c3cccc4cccc2c34)cc1 | inconclusive: 31.6 µM [inhibitor, partial curve]
12 | FC(F)(F)c1nnc2sc(-c3cccs3)nn12 | inconclusive: 35.5 µM [inhibitor, single point]
13 | O=C(Cc1n[nH]c(=O)[nH]c1=O)N/N=C/CCc1ccccc1 | inconclusive: 25.1 µM [inhibitor, single point]
14 | COc1cc(OC)c(-n2cc(-c3ccc(Cl)cc3)[nH]c2=O)cc1Cl | inconclusive: 39.8 µM [inhibitor, single point]
15 | Cc1ccc2cc(CCNC(=O)c3ccco3)c(=O)[nH]c2c1 | inconclusive: 39.8 µM [inhibitor, single point]
16 | CC1=NN(c2ccccc2)C(=O)C1C=Nc1ccccc1O (stereo not given) | active: 31.6 µM
17 | CCOC(=O)c1oc2ccccc2c1NC(=O)COC | inconclusive: 25.1 µM [inhibitor, single point]
18 | COC(=O)c1ccccc1NC(=O)NCc1ccccn1 | inconclusive: 28.2 µM [inhibitor, single point]
19 | O=C(CSc1c[nH]c2ccccc12)NCC1CCCO1 (stereo not given) | inactive
20 | COc1ccc2oc(/C=C/N(C)C)c(C(=O)c3ccc(Cl)cc3)c2c1 | inactive
21 | Cc1ccc(NC(=O)CNC(c2ccccc2)c2ccccc2)c(F)c1 | inactive
22 | O=C(O)/C(=C\c1ccccc1)c1ccccc1 | inactive
23 | COc1ccc2nc(NC(=O)c3cccc(S(=O)(=O)N4CCOCC4)c3)sc2c1 | inconclusive: 31.6 µM [inhibitor, single point]
24 | Cc1cccn2cc(COc3ccc(-c4ccccc4)cc3)nc12 | inconclusive: 31.6 µM [inhibitor, single point]
25 | Cc1cccc(-c2noc(-c3ccoc3C)n2)c1 | inactive

Row | SMILES | Potency
26 | COc1cccc(CN2CCN(Cc3cc(OC)c(OC)cc3[N+](=O)[O-])CC2)c1 | inconclusive: 35.5 µM [inhibitor, single point]
27 | O=C(NCCO)c1ccc2nc(-c3ccco3)c(-c3ccco3)nc2c1 | inconclusive: 20 µM [inhibitor, partial curve]
28 | COc1ccc(Cc2nc(-c3cccs3)no2)cc1 | inactive
29 | CCc1cc2c(SCC(=O)C(C#N)=C3N(C)c4ccccc4N3C)ncnc2s1 | inconclusive: 35.5 µM [inhibitor, single point]
30 | COc1cc2c(cc1OC)C(/C=C/c1ccc(OC)c(OC)c1OC)=NCC2 | inconclusive: 25.1 µM [inhibitor, partial curve]
31 | CSc1ccccc1NC(=O)NCCCl | inactive
32 | COc1ccc(-n2ncc3c(NCc4ccccn4)ncnc32)cc1 | inconclusive: 31.6 µM [inhibitor, partial curve]
33 | COc1cc(C)ccc1OCCCCN1CC(C)OC(C)C1 (stereo not given) | inconclusive: 22.4 µM [inhibitor, single point]
34 | CCOC(=O)c1sc2nc(C)cc(C)c2c1N | inconclusive: 28.2 µM [inhibitor, partial curve]
35 | NCCc1c(C(=O)O)[nH]c2ccc([N+](=O)[O-])cc12 | inactive
36 | CCOC(=O)c1c(NS(=O)(=O)c2cccc(OC)c2)sc2c1CCC2 | inconclusive: 28.2 µM [inhibitor, single point]
37 | COc1ccc(C(C)=O)cc1CSc1nc2ccccc2c(=O)n1-c1ccccc1C | inactive
38 | Nc1ccc(C(=O)N/N=C\c2cc(N=Nc3cccc4ccccc34)ccc2O)cc1 | inconclusive: 20 µM [inhibitor, single point]
39 | COc1ccnc(CS(=O)c2nc3ccc(OC(F)F)cc3[nH]2)c1OC (stereo not given) | inconclusive: 35.5 µM [inhibitor, partial curve]
40 | CCN1C(=O)/C(=C2\SC(=S)N(c3c(C)n(C)n(-c4ccccc4)c3=O)C2=O)c2ccccc21 | inactive
41 | O=C(Cc1cccs1)NCc1cn2ccccc2n1 | inconclusive: 28.2 µM [inhibitor, partial curve]
42 | Cc1cc(-c2ccccc2)n2ncnc2n1 | inconclusive: 28.2 µM [inhibitor, partial curve]
43 | CCOC(=O)c1ccc(N2Cc3ccccc3C2=NC(=O)c2ccncc2)cc1 | inconclusive: 28.2 µM [inhibitor, single point]
44 | CCN1CCCc2cc(CN(CCN3CCOCC3)C(=O)Nc3ccc(C)c(C)c3)ccc21 | inconclusive: 39.8 µM [inhibitor, single point]
45 | Cc1ccccc1-c1nnc(SCCOc2ccc3c(C)cc(=O)oc3c2)o1 | inconclusive: 10 µM [inhibitor, partial curve]
46 | O=[N+]([O-])c1ccc2c(c1Nc1ccccc1)=NC1(CCCCC1)N=2 | inconclusive: 3.55 µM [inhibitor, partial curve]
47 | Cc1cc(-c2nn(-c3ccccc3F)cc2CN2CCCC(CO)C2)c(C)s1 (stereo not given) | inactive
48 | COC(=O)C1=C(C)NC2=C(C(=O)CCC2)C1c1cccc(C)n1 (stereo not given) | inconclusive: 28.2 µM [inhibitor, partial curve]
49 | CCOC(=O)c1ccc(CNC(=O)CSc2nc(NC(=O)c3ccccc3)c3c(C)c(C)oc3n2)cc1 | inconclusive: 39.8 µM [inhibitor, single point]
50 | O=C(Nc1ccc(-c2csc(Nc3ccc(Cl)cc3)n2)cc1)c1cccc(C(F)(F)F)c1 | inconclusive: 25.1 µM [inhibitor, single point]

Row | SMILES | Potency
51 | CCOc1ccc(C(=S)N2CCCC2)cc1 | inactive
52 | CN(C)/C=N/c1nc2nccc(-c3ccccn3)n2n1 | inconclusive: 28.2 µM [inhibitor, partial curve]
53 | Cc1cccc(/C=N/NC(=O)CNc2cccc3ccccc23)n1 | inconclusive: 31.6 µM [inhibitor, single point]
54 | Cn1c(=O)c(/C=C/c2ccc(F)cc2)nc2ccccc21 | inconclusive: 28.2 µM [inhibitor, partial curve]
55 | CCn1c2ccccc2c2cc(NC(=O)COC(=O)c3cccc(S(=O)(=O)NC)c3)ccc21 | inactive
56 | Cc1ccc2ccc(S(=O)(=O)n3nc(C)cc3C)cc2c1 | inactive
57 | Cc1ccc(CNC(=O)CCCNS(=O)(=O)c2cccc3nonc23)cc1 | inactive
58 | O=C1CNC(=S)N1CCc1ccc(O)c(O)c1 | active: 12.6 µM
59 | O=C(c1ccncc1)N1CCN(c2ccc3ccccc3n2)CC1 | inconclusive: 28.2 µM [inhibitor, single point]
60 | COc1ccc(CCNC(=O)CCSc2nc(-c3ccco3)cc(C(F)(F)F)n2)cc1 | inconclusive: 12.6 µM [inhibitor, partial curve]
61 | Cc1onc(-c2ccccc2Cl)c1C(=O)c1ccccc1 | inactive
62 | Cc1occc1C(=O)N/N=C/c1ccc(N(C)C)cc1 | inconclusive: 31.6 µM [inhibitor, partial curve]
63 | COc1cc(/C=C/C(=O)Nc2nnc(CC(C)(C)C)s2)cc(OC)c1OC | inconclusive: 14.1 µM [inhibitor, partial curve]
64 | Cc1ncc([N+](=O)[O-])n1C[C@H](O)CCl | inactive
65 | Cc1nc2ccccc2nc1OCC(=O)N1CCN(c2ccccc2)CC1 | inconclusive: 28.2 µM [inhibitor, partial curve]
66 | O=C(Nc1ccc(F)cc1)c1nsc(Cl)c1Cl | inconclusive: 39.8 µM [inhibitor, single point]
67 | COc1ccc(Nc2nc3ccccc3n3cnnc23)cc1 | inconclusive: 35.5 µM [inhibitor, single point]
68 | CC(C)Cn1cnc2c(c1=O)c1nc3ccccc3nc1n2Cc1ccc2c(c1)OCO2 | inactive
69 | COCCn1nnnc1C(c1ccccc1OC)N1CCN(c2ccccc2)CC1 (stereo not given) | inactive
70 | COC(=O)c1ccccc1-c1ccc(/C=N/NC(N)=O)o1 | inconclusive: 28.2 µM [inhibitor, single point]
71 | CC(=O)c1cccc(NC(=S)NC2CCCCC2)c1 | inactive
72 | O=C(NCCc1c[nH]c2ccccc12)[C@H]1C[C@@H]1[C@H](NP(=O)(c1ccccc1)c1ccccc1)c1ccccc1 | inactive
73 | O=C(CN1CCCC1)Nc1ccc(-c2nc3cc(NC(=O)CN4CCCC4)ccc3o2)cc1 | inconclusive: 0.708 µM [inhibitor, single point]
74 | CCOc1ccc(NC(=S)Nc2cccnc2)cc1 | inconclusive: 20 µM [inhibitor, single point]
75 | N#CC1=C(N)SC(N)=C(C#N)C1C1C=CCCC1 (stereo not given) | inconclusive: 7.08 µM [inhibitor, single point]
